{
  "source": "the supplement of paper PMC9446081",
  "note": "In all, about 39,000 compounds went through this assay and about 220 (0.56%) showed activity. Some of the results follow.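 Note: static incubation at 37 °C against the wild-type strain, values averaged over two biological replicates.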",
  "data": [
    {"test_system": "Escherichia coli K-12 BW25113", "assay": "relative growth (OD600 normalised to plate interquartile mean) (fraction); higher = less growth inhibition, active = 0.2 or less", "details": "50 µM; LB; incubation time: overnight (16-24 h)", "values": [
      {"compound": "C[C@H](CO)N1C[C@H](C)[C@@H](CN(C)C(=O)NC2CCCCC2)Oc2c(NC(=O)c3ccc(-c4nccs4)cc3)cccc2C1=O", "relative growth": "inactive: 1"},
      {"compound": "O=C(CN1CCOCC1)N[C@@H]1CC[C@H](CCNS(=O)(=O)c2ccccc2F)O[C@@H]1CO", "relative growth": "inactive: 1.01"},
      {"compound": "C[C@H]1CN([C@@H](C)CO)C(=O)c2cc(NC(=O)Nc3ccccc3)ccc2O[C@H]1CN(C)Cc1ccc(Oc2ccccc2)cc1", "relative growth": "inactive: 1.03"},
      {"compound": "COc1ccc(S(=O)(=O)N(C)C[C@H]2Oc3ccc(NC(=O)Nc4c(C)noc4C)cc3C(=O)N([C@@H](C)CO)C[C@@H]2C)cc1", "relative growth": "inactive: 1.02"},
      {"compound": "Clc1ccc2nc(Cl)cc(-c3ccccc3)c2c1", "relative growth": "inactive: 1"},
      {"compound": "C[C@@H]1CN([C@@H](C)CO)C(=O)Cc2cc(NS(=O)(=O)c3ccccc3)ccc2O[C@@H]1CN(C)Cc1ccc(C(=O)O)cc1", "relative growth": "inactive: 1.01"},
      {"compound": "CC(=O)N[C@H]1[C@H](O/N=[N+](\\[O-])N2CCCC2)O[C@H](CO)[C@@H](O)[C@@H]1O", "relative growth": "inactive: 0.993"},
      {"compound": "C[C@H](CO)N1C[C@H](C)[C@H](CN(C)S(=O)(=O)c2ccc(F)cc2)Oc2ncc(C#Cc3ccc(F)cc3)cc2C1=O", "relative growth": "inactive: 1.02"},
      {"compound": "Cc1noc(C)c1S(=O)(=O)Nc1ccc2c(c1)C(=O)N([C@@H](C)CO)C[C@@H](C)[C@H](CN(C)S(=O)(=O)c1ccccc1)O2", "relative growth": "inactive: 1"},
      {"compound": "O=C(CSc1nnc[nH]1)C1CC1", "relative growth": "inactive: 0.94"},
      {"compound": "COCC(=O)N(C)C[C@H]1Oc2cc(C#CCN(C)C)ccc2S(=O)(=O)N([C@H](C)CO)C[C@H]1C", "relative growth": "inactive: 1.01"},
      {"compound": "COc1ccc(CN(C)C[C@H]2OCCCC[C@H](C)Oc3ccc(NS(=O)(=O)c4cccs4)cc3C(=O)N([C@H](C)CO)C[C@@H]2C)cc1", "relative growth": "inactive: 0.994"},
      {"compound": "Cc1cc(C(=O)Nc2cccc3c2O[C@H](CN(C)Cc2ccc(C(=O)O)cc2)[C@@H](C)CN([C@H](C)CO)C3=O)n(C)n1", "relative growth": "inactive: 0.984"},
      {"compound": "Cc1ccc(S(=O)(=O)N(C)C[C@H]2Oc3ccc(NC(=O)C4CC4)cc3C(=O)N([C@H](C)CO)C[C@H]2C)cc1", "relative growth": "inactive: 1.03"},
      {"compound": "COc1ccc(S(=O)(=O)Nc2ccc3c(c2)CC(=O)N([C@H](C)CO)C[C@@H](C)[C@@H](CN(C)Cc2ccc(Cl)c(Cl)c2)O3)cc1", "relative growth": "inactive: 0.966"},
      {"compound": "O=C(C[C@H]1CC[C@@H]2[C@H](COC[C@H](O)CN2S(=O)(=O)c2ccccc2)O1)NCCN1CCCCC1", "relative growth": "inactive: 0.989"},
      {"compound": "Cc1ccc(S(=O)(=O)N(C)C[C@H]2Oc3ccc(NS(=O)(=O)c4cccs4)cc3CC(=O)N([C@H](C)CO)C[C@H]2C)cc1", "relative growth": "inactive: 0.951"},
      {"compound": "C[C@@H]1CCCCO[C@@H](CN(C)C(=O)NC2CCCCC2)[C@H](C)CN([C@@H](C)CO)C(=O)c2cc(NC(=O)Cc3ccccc3)ccc2O1", "relative growth": "inactive: 1.03"},
      {"compound": "C[C@H](CO)N1C[C@H](C)[C@H](CN(C)C(=O)CN2CCOCC2)Oc2ncc(C3=CCCCC3)cc2C1=O", "relative growth": "inactive: 1.01"},
      {"compound": "CS(=O)(=O)Nc1ccccc1O", "relative growth": "inactive: 1.01"},
      {"compound": "COc1ccc(S(=O)(=O)Nc2ccc3c(c2)C(=O)N([C@@H](C)CO)C[C@@H](C)[C@H](CN(C)Cc2ccc(C(=O)Nc4ccccc4N)cc2)OCCCC[C@@H](C)O3)cc1", "relative growth": "inactive: 0.973"},
      {"compound": "C[C@@H]1CN([C@H](C)CO)C(=O)c2cc(NC(=O)Cn3cnnn3)ccc2O[C@H]1CN(C)C(=O)Nc1ccc(C(F)(F)F)cc1", "relative growth": "inactive: 1"},
      {"compound": "COc1cccc(S(=O)(=O)N(C)C[C@H]2Oc3ncc(C#CC(C)C)cc3C(=O)N([C@H](C)CO)C[C@@H]2C)c1", "relative growth": "inactive: 1.02"},
      {"compound": "O=C(CN1CCOCC1)N[C@H]1CC[C@H](CCNC(=O)Nc2cc(F)ccc2F)O[C@H]1CO", "relative growth": "inactive: 1.02"},
      {"compound": "CC(C)NC(=O)Nc1cccc2c1O[C@@H](CN(C)S(=O)(=O)c1cccs1)[C@@H](C)CN([C@H](C)CO)C2=O", "relative growth": "inactive: 0.996"},
      {"compound": "CC(=O)Nc1cc(C(C)C)c(C(C)C)cc1C(C)C", "relative growth": "inactive: 0.959"},
      {"compound": "O=C(C[C@H]1CC[C@@H]2[C@H](COC[C@H](O)CN2S(=O)(=O)c2cccc(F)c2)O1)NCc1ccncn1", "relative growth": "inactive: 0.994"},
      {"compound": "O=C(CN1CCOCC1)NCC[C@@H]1CC[C@@H](NS(=O)(=O)c2ccc(F)cc2)[C@@H](CO)O1", "relative growth": "inactive: 1.01"},
      {"compound": "C[C@@H]1CN([C@H](C)CO)C(=O)c2c(c3ccccc3n2C)-c2ccccc2CO[C@H]1CN(C)Cc1ccc(-c2ccccc2)cc1", "relative growth": "inactive: 0.987"},
      {"compound": "Cc1cc(C)c(C#N)c(=O)[nH]1", "relative growth": "inactive: 0.983"},
      {"compound": "Cc1noc(C)c1S(=O)(=O)Nc1ccc2c(c1)C(=O)N([C@H](C)CO)C[C@H](C)[C@H](CN(C)S(C)(=O)=O)OCCCC[C@H](C)O2", "relative growth": "inactive: 0.98"},
      {"compound": "C[C@@H]1CCCCO[C@H](CN(C)CC2CCCCC2)[C@H](C)CN([C@@H](C)CO)C(=O)c2cc(NC(=O)CCCCCC(=O)Nc3ccccc3N)ccc2O1", "relative growth": "inactive: 1.02"},
      {"compound": "CO[C@@H]1CN(C)C(=O)c2cc(NS(=O)(=O)CC(F)(F)F)ccc2OC[C@H](C)N(Cc2ccccn2)C[C@@H]1C", "relative growth": "inactive: 1.02"},
      {"compound": "C[C@@H]1NC(=O)[C@@H](N)CNC(=O)[C@H]([C@H]2CCN=C(N)N2)NC(=O)/C(=C\\NC(N)=O)NC(=O)[C@H](CNC(=O)C[C@@H](N)CCCN)NC1=O", "relative growth": "inactive: 0.743"},
      {"compound": "CCCC#Cc1ccc2c(c1)O[C@H](CN(C)S(=O)(=O)c1cccc(OC)c1)[C@@H](C)CN([C@H](C)CO)S2(=O)=O", "relative growth": "inactive: 1.05"},
      {"compound": "C[C@@H]1CN([C@@H](C)CO)C(=O)c2cccc(NC(=O)Nc3ccc(F)cc3)c2O[C@H]1CN(C)C(=O)Nc1ccc(C(F)(F)F)cc1", "relative growth": "inactive: 0.975"},
      {"compound": "CCS(=O)(=O)N[C@@H]1CC[C@@H](CC(=O)NCC2CC2)O[C@H]1CO", "relative growth": "inactive: 1.01"},
      {"compound": "C[C@@H]1CCCCO[C@H](CN(C)C(=O)Nc2ccc(F)cc2)[C@@H](C)CN([C@H](C)CO)C(=O)c2cc(NC(=O)Nc3ccccc3)ccc2O1", "relative growth": "inactive: 0.956"},
      {"compound": "C=CC(C)(O)CCC=C(C)CCC=C(C)C", "note": "(stereo not given)", "relative growth": "inactive: 0.898"},
      {"compound": "C[C@@H]1CCCCO[C@H](CN(C)Cc2ccc(C(=O)O)cc2)[C@@H](C)CN([C@H](C)CO)C(=O)c2cc(NC(=O)Nc3cccc4ccccc34)ccc2O1", "relative growth": "inactive: 1.02"},
      {"compound": "O=C(C[C@H]1C[C@@H]2c3cc(NC(=O)NC4CCCC4)ccc3O[C@@H]2[C@@H](CO)O1)NCc1ccc(Oc2ccccc2)cc1", "relative growth": "inactive: 1.03"},
      {"compound": "CC(C)CC#Cc1ccc2c(c1)O[C@H](CN(C)C(=O)c1cnccn1)[C@H](C)CN([C@H](C)CO)S2(=O)=O", "relative growth": "inactive: 0.983"},
      {"compound": "C[C@@H]1CCCCO[C@@H](CN(C)C(=O)Nc2ccc3c(c2)OCO3)[C@H](C)CN([C@H](C)CO)C(=O)c2cc(NS(=O)(=O)c3cccs3)ccc2O1", "relative growth": "inactive: 1"},
      {"compound": "COc1cccc(S(=O)(=O)N2C[C@@H](O)COC[C@@H]3O[C@@H](CC(=O)NCCCN4CCOCC4)CC[C@H]32)c1", "relative growth": "inactive: 1.01"},
      {"compound": "C[C@@H]1CCCCO[C@H](CN(C)C(=O)Cc2ccccc2)[C@H](C)CN([C@@H](C)CO)C(=O)c2cc(NC(=O)Nc3cccc4ccccc34)ccc2O1", "relative growth": "inactive: 1.01"},
      {"compound": "C[C@@H]1CCCCO[C@@H](CN(C)CC2CCCCC2)[C@@H](C)CN([C@@H](C)CO)C(=O)c2cc(NC(=O)c3ccccc3)ccc2O1", "relative growth": "inactive: 0.985"},
      {"compound": "CN1C(=O)c2cc(NC(=O)C3CCOCC3)ccc2OC[C@@H]2O[C@@H](CC(=O)NCc3ccccc3F)CC[C@@H]21", "relative growth": "inactive: 0.992"},
      {"compound": "O=C(C[C@@H]1C=C[C@@H](NS(=O)(=O)c2ccccc2)[C@H](CO)O1)NCc1ccncn1", "relative growth": "inactive: 0.99"},
      {"compound": "C[C@@H]1CN([C@@H](C)CO)C(=O)Cc2cc(NS(=O)(=O)c3ccc(Cl)cc3)ccc2O[C@@H]1CN(C)C(=O)Nc1cccc2ccccc12", "relative growth": "inactive: 1"},
      {"compound": "C[C@H]1CN([C@@H](C)CO)C(=O)c2cccc(NC(=O)Nc3ccc(C(F)(F)F)cc3)c2O[C@@H]1CN(C)C(=O)Nc1cccc2ccccc12", "relative growth": "inactive: 0.782"},
      {"compound": "Cc1noc(C)c1S(=O)(=O)N(C)C[C@H]1Oc2ccc(NS(=O)(=O)c3cccs3)cc2CC(=O)N([C@@H](C)CO)C[C@H]1C", "relative growth": "inactive: 0.997"},
      {"compound": "C[C@H]1CN([C@@H](C)CO)C(=O)c2cccc(NC(=O)NC3CCCCC3)c2O[C@H]1CN(C)S(C)(=O)=O", "relative growth": "inactive: 1.01"},
      {"compound": "CC(C)(O)c1cn(-c2nonc2N)nn1", "relative growth": "inactive: 0.975"},
      {"compound": "C[C@H](CO)N1C[C@H](C)[C@@H](CN(C)C(=O)Nc2ccc(F)cc2)OCCCC[C@H](C)Oc2ccc(NC(=O)NC3CCCCC3)cc2C1=O", "relative growth": "inactive: 0.992"},
      {"compound": "CCCN1C[C@H](C)[C@@H](OC)CN(C)C(=O)c2ccc(NS(=O)(=O)c3cn(C)cn3)cc2OC[C@H]1C", "relative growth": "inactive: 0.982"},
      {"compound": "O=C(C[C@@H]1CC[C@H]2[C@@H](COC[C@@H](O)CN2Cc2cccc(C(F)(F)F)c2)O1)NCCc1ccncc1", "relative growth": "inactive: 0.997"},
      {"compound": "C[C@@H]1CCCCO[C@H](CN(C)Cc2ccc(Cl)c(Cl)c2)[C@@H](C)CN([C@@H](C)CO)C(=O)c2cc(NC(=O)Nc3ccc(F)cc3)ccc2O1", "relative growth": "inactive: 1.02"},
      {"compound": "C[C@H](CO)N1C[C@H](C)[C@H](CN(C)Cc2ccc(Oc3ccccc3)cc2)Oc2ccc(NS(=O)(=O)c3cccs3)cc2CC1=O", "relative growth": "inactive: 0.865"},
      {"compound": "C[C@H](CO)N1C[C@H](C)[C@@H](CN(C)C(=O)Nc2ccc(C(F)(F)F)cc2)Oc2c(NS(=O)(=O)c3ccc(Cl)cc3)cccc2C1=O", "relative growth": "inactive: 0.991"},
      {"compound": "C[C@H](CO)N1C[C@H](C)[C@H](CN(C)S(=O)(=O)c2ccc(Cl)cc2)Oc2ccc(NC(=O)CCCN(C)C)cc2C1=O", "relative growth": "inactive: 0.989"}
    ]}
  ]
}
